Test results from PubChem BioAssay AID504466 (National Center for Advancing Translational Sciences (NCATS), 2011).
Screen size: about 330,000 compounds; about 4,200 (1.3%) were called active. The shares of active, inactive and inconclusive entries below differ from those in the screen. Calls follow the shape of the dose curve; as a rule, active = well fitted activation curve with a large enough effect; inconclusive = small, poorly fitted or top-dose-only effect; inactive = no such curve, though single readings can be large or run the other way. Potencies of inconclusive entries are doubtful fits and often do not repeat.
Potency is read from the fitted curve at half-maximal effect; tags tell the direction and shape of the fitted curve.

Test: qHTS screen for small molecules that induce genotoxicity in human embryonic kidney (HEK293T) cells expressing luciferase-tagged ELG1; also: nearly all actives have a fitted effect of over 60% in size
Details: HEK293T ELG1-luciferase reporter, luminescence, 16 h; series mostly up to 46 µM
Summary of the method: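 Cells (2,000/well) expressing the ELG1-luciferase fusion are dosed by pin tool and kept 16 hr at 37 °C, 5% CO2. Signal comes from ONE-Glo luciferase reagent after 30 min at room temperature.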
For `Nc1ccccc1NC1=CC(=O)CC(c2ccco2)C1` (configuration not stated), the Potency was inconclusive: 25.9 µM [activator, partial curve, poor fit]. With `Cc1ccc2nc3sc(C(=O)NCc4ccco4)c(N)c3cc2c1` the Potency was active: 9.2 µM. In the case of `COc1ccc2c(c1)[C@H]1[C@H](CO2)[C@H](c2ccccc2)[C@]2(C)C(=O)Nc3cc(Cl)ccc3C(=O)N12`, the Potency is reported as inconclusive: 0.73 µM [activator, partial curve, poor fit]. For `O=C(/C=C/c1c(F)cccc1Cl)Nc1cccnc1`, the Potency was active: 2.31 µM. With `CN(Cc1ccc(N(C)C)cc1)C(=O)c1cc2ccccc2o1` the Potency was inconclusive: 14.6 µM [activator, partial curve, poor fit]. With `Cc1ccc2nc(NC(=O)CSCC(=O)Nc3cc(C)on3)sc2c1` the Potency was inconclusive: 23.1 µM [activator, partial curve, poor fit]. With `CCOC(=O)c1c(N)sc(-c2ccccc2)c1C` the Potency was inconclusive: 23.1 µM [activator, partial curve, poor fit]. In the case of `CCC(=O)NCCc1nc2cc(NC(=O)c3ccco3)ccc2n1C`, the Potency is reported as inconclusive: 35.5 µM [activator, single point]. In the case of `CC(=O)c1cccc(NC(=O)C2COc3ccccc3O2)c1` (configuration not stated), the Potency is reported as inconclusive: 18.3 µM [activator, partial curve, poor fit]. For `Cn1nnnc1SCCNC(=O)C1CCC(=O)N(Cc2ccccc2F)C1` (configuration not stated), the Potency was “inactive”. For `CCCNC(=O)C(=O)Nc1ccc(N(C)C)cc1`, the Potency was inconclusive: 18.4 µM [activator, partial curve]. For `COc1nc(C)ccc1-c1noc(-c2ccccn2)n1`, the Potency was active: 1.16 µM. In the case of `COC(=O)c1cccc(NC(=O)C(C)N2C(=O)c3ccccc3C2=O)c1` (configuration not stated), the Potency is reported as inconclusive: 29.1 µM [activator, partial curve, poor fit]. With `COC(=O)c1cccc(Cn2c(Cl)c(/C=N/NC(=O)c3ccco3)sc2=O)c1` the Potency was “inactive”. With `COc1ccccc1N1CCN(C(=O)c2ccc3[nH]c(C)c(C)c3c2)CC1` the Potency was inconclusive: 18.3 µM [activator, partial curve, poor fit]. For `CSc1ccccc1OCc1cc(C(=O)N2CCN(C3CCCC3)C(=O)C2)no1`, the Potency was inconclusive: 18.3 µM [activator, partial curve, poor fit]. In the case of `CCNS(=O)(=O)c1ccc(CCC(=O)NCc2ccccn2)cc1`, the Potency is reported as inconclusive: 6.51 µM [activator, partial curve, poor fit]. In the case of `Fc1cccc(C2NN=C(c3ccccc3)S2)c1` (configuration not stated), the Potency is reported as active: 2.31 µM. For `COc1ccc(/C(N)=N/OC(=O)CCc2ccccc2)cc1`, the Potency was inconclusive: 29.1 µM [activator, single point]. In the case of `O=C(OCCOc1cccc(Cl)c1)c1cc(S(=O)(=O)N2CCCCC2)ccc1N1CCOCC1`, the Potency is reported as inconclusive: 16.4 µM [activator, single point]. In the case of `COc1cc(OC)c(C(=O)OCC(=O)Nc2ccc(S(=O)(=O)N3CCOCC3)cc2)cc1OC`, the Potency is reported as “inactive”. With `CCc1nc2oc3ccccc3c(=O)c2c(=O)n1-c1ccccc1` the Potency was active: 13 µM. For `Cc1cc(NC(=O)COc2ccccc2C(N)=O)no1`, the Potency was inconclusive: 10.3 µM [activator, partial curve]. With `O=c1[nH]c(-c2ccco2)nc2sc3c(c12)CCCC3` the Potency was active: 9.2 µM. For `CCN1C(=S)SC(=O)C1=C1C=C(C)N(CCOC)C(C)=C1`, the Potency was active: 1.64 µM. For `Cc1nc2ccc(NC(=O)c3ccco3)cc2nc1C`, the Potency was “inactive”. In the case of `COc1ccc(-c2c[n+]3c(n2-c2ccc(C)cc2)CCCCC3)cc1`, the Potency is reported as “inactive”. With `CCCc1ccc2oc(C(=O)N3CCC[C@H]3CO)c(C)c2c1` the Potency was inconclusive: 6.51 µM [activator, partial curve, poor fit]. In the case of `Cc1cccc(C(=O)Nc2ccc(C(=O)Nc3ccc(O)cc3)cc2)c1`, the Potency is reported as inconclusive: 23.1 µM [activator, single point]. With `CCn1cnc2cc(NCc3nc4ccccc4n3C)ccc21` the Potency was active: 1.64 µM. For `CCc1ccc(O)c(-c2cc(C(=O)Nc3cccnc3)[nH]n2)c1`, the Potency was inconclusive: 7.3 µM [activator, partial curve, poor fit]. With `O=C(CSc1ccccn1)Nc1nc2ccccc2s1` the Potency was inconclusive: 14.6 µM [activator, partial curve, poor fit]. In the case of `CS(=O)(=O)Nc1ccc(OCc2ccccc2)cc1`, the Potency is reported as active: 14.6 µM. With `O=C(/C=C/c1ccccc1F)c1cccc([N+](=O)[O-])c1` the Potency was inconclusive: 29.1 µM [activator, partial curve, poor fit]. In the case of `COc1cc(NC(=O)COc2ccc(Cl)cc2)ccc1-c1cc2ccccc2oc1=O`, the Potency is reported as “inactive”. With `COc1ccc(NC(C)=O)cc1S(=O)(=O)N1CCc2ccccc21` the Potency was inconclusive: 20.6 µM [activator, partial curve, poor fit]. For `COc1ccc(C(=O)Nc2cc(Cl)ccc2C(=O)O)cc1`, the Potency was “inactive”. With `C#CCSc1nnc(-c2ccc(O)cc2)o1` the Potency was inconclusive: 11.6 µM [activator, partial curve]. With `NC(=O)COc1ccccc1` the Potency was “inactive”. For `c1ccc(-c2csc(N3CCc4ccccc4C3)n2)cc1`, the Potency was inconclusive: 14.6 µM [activator, partial curve, poor fit]. With `CCCc1cc(-c2ccc3c(c2)COc2c4ccccc4nn2-3)on1` the Potency was inconclusive: 2.31 µM [activator, partial curve]. For `O=C(Cn1cc(C(F)(F)F)ccc1=O)N/N=C/c1ccccc1O`, the Potency was “inactive”. With `Cc1cc(O)c(-c2cc(C(=O)Nc3cccnc3)[nH]n2)cc1C` the Potency was active: 3.66 µM. For `COc1cc(C(=O)N/N=C(\C)Cc2ccccc2)cc(OC)c1OC`, the Potency was inconclusive: 32.6 µM [activator, partial curve, poor fit]. For `Cc1cccc(-n2ncc3c(N4CC(C)CC(C)C4)ncnc32)c1` (configuration not stated), the Potency was active: 2.59 µM. For `O=C(O)c1c2c(nc3ccccc13)/C(=C/c1ccc(OC(F)F)cc1)CCC2`, the Potency was inconclusive: 5.8 µM [activator, partial curve, poor fit]. In the case of `COc1ccccc1/C=C/C(=O)N1CCOCC1`, the Potency is reported as “inactive”. In the case of `Cc1ccc(/C(N)=N/OC(=O)CCCc2ccccc2)cc1`, the Potency is reported as inconclusive: 29.1 µM [activator, partial curve, poor fit]. In the case of `O=C(Nc1ccc2oc(-c3cccc4ccccc34)nc2c1)c1ncn[nH]1`, the Potency is reported as inconclusive: 25.9 µM [activator, partial curve, poor fit]. For `CCN(C(=O)COC(=O)C1CCN(S(=O)(=O)c2ccc(C)c(C)c2)CC1)C1CCCCC1`, the Potency was “inactive”. In the case of `Cc1c(C(=O)NC(=S)NCC(C)C)oc2ccccc12`, the Potency is reported as inconclusive: 10.3 µM [activator, partial curve, poor fit]. For `C/C(N)=C(/C#N)C(=O)CSc1nnc(Nc2ccccc2)s1`, the Potency was inconclusive: 13 µM [activator, partial curve, poor fit]. In the case of `Cc1ccccc1-n1ncc2c1CC(C)(C)CC2NC(=O)CCC(F)(F)F` (configuration not stated), the Potency is reported as “inactive”. For `COc1ccc([N+](=O)[O-])cc1NC(=O)C(C)OC(=O)CC1CCCC1` (configuration not stated), the Potency was “inactive”. For `COC(=O)c1ccc(-c2cc(C(=O)O)c3cc4c(cc3n2)OCCO4)cc1`, the Potency was inconclusive: 25.9 µM [activator, partial curve, poor fit]. For `N#C/C(C(=O)Oc1ccccc1)=C1\C=CC=CN1`, the Potency was inconclusive: 9.2 µM [activator, partial curve]. For `CC(C)CN1C(=O)C(=O)N(CC(=O)NC(C)CCc2ccccc2)C1=O` (configuration not stated), the Potency was “inactive”. For `O=C(N/N=C/c1c[nH]c2ccccc12)c1ccc(Br)cc1`, the Potency was inconclusive: 18.3 µM [activator, partial curve, poor fit]. In the case of `CCOC(=O)c1sc(=NC(=O)c2ccccc2)n(C)c1C`, the Potency is reported as inconclusive: 1.16 µM [activator, single point]. With `O=C(Cn1cnc2c(nnn2-c2cccc(F)c2)c1=O)Nc1ccc2c(c1)OCCO2` the Potency was inconclusive: 29.1 µM [activator, partial curve, poor fit]. For `Fc1ccccc1-c1nc(-c2ccc(Br)o2)no1`, the Potency was inconclusive: 2.59 µM [activator, partial curve]. In the case of `COc1ccc(-c2nc(C(N)=O)c3[nH]c(=O)n(-c4ccccc4OC)c3n2)c(OC)c1`, the Potency is reported as inconclusive: 10.3 µM [activator, partial curve, poor fit]. With `CCOc1ccc(CCNC(=O)CN2C(=O)NC3(CCCC3)C2=O)cc1OCC` the Potency was “inactive”. For `COc1ccc(N/C=C\C(=O)c2ccc3c(c2)OCO3)cc1OC`, the Potency was inconclusive: 23.1 µM [activator, single point]. In the case of `Cc1ccc(C(=O)NCCCc2ccccc2)s1`, the Potency is reported as inconclusive: 9.2 µM [activator, partial curve, poor fit]. For `O=C(CSc1ccc2nnc(CCNC(=O)c3ccccc3)n2n1)Nc1ccccc1`, the Potency was “inactive”. With `O=C1N=C(N2CCOCC2)S/C1=C/c1cccs1` the Potency was “inactive”. For `COc1ccc(-c2cn3cccnc3n2)cc1F`, the Potency was inconclusive: 23.1 µM [activator, single point]. In the case of `Cc1ccc2c(c1)sc1nc(=O)n(-c3ccc(Cl)cc3)c(=O)n12`, the Potency is reported as “inactive”. For `CCN(C[C@H]1N[C@@](Cc2ccccc2)(C(=O)OC)[C@H]2C(=O)N(C)C(=O)[C@@H]12)C(=O)NC(C)C`, the Potency was “inactive”. For `COc1ccccc1/C=N/Nc1nccnc1Cl`, the Potency was active: 18.4 µM. With `O=C(Nc1nnc(-c2ccccc2Cl)s1)c1ccccc1F` the Potency was inconclusive: 5.17 µM [activator, full curve, poor fit].
